Experimental data published in the supplement of paper PMC12217912.
This is one part of the list. The full chains were built here from the parent and the listed change. Inactive controls read about 0.05.

B1: TEV protease; numbered along this chain (parent)
chain: MGESLFKGPRDYNPISSSICHLTNESDGHTTSLYGIGFGPFIITNKHLFRRNNGTLVVQSLHGVFKVKDTTTLQQHLVDGRDMIIIRMPKDFPPFPQKLKFREPQREERICLVTTNFQTKSMSSMVSDTSCTFPSGDGIFWKHWIQTKDGQCGSPLVSTRDGFIVGIHSASNFTNTNNYFTSVPKNFMELLTNQEAQQWVSGWRLNADSVLWGGHKVFMVKPEEPFQPVKEATQL

Variants of: B1
Assay: raw area under fraction-flipped curve 0-4 h after induction (AUC4h, not background-subtracted), DNA-recorder readout of cleavage of the substrate (dimensionless); higher = more cleavage of the substrate by the protease variant
Settings: temperature: 34 °C; time window: 0-4 h after rhamnose induction
Procedure: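 In vivo DNA recorder in E. coli TOP10(DE3) ΔrhaA at 34 °C. Each TEVp single-site mutant (parent TEVp 0) is paired with a single-site variant of the 7-mer TEVs (canonical ENLYFQ|S). The substrate sits between flexible linkers in a Bxb1-sfGFP-TEVs-SsrA fusion, so cleavage stabilises Bxb1 and speeds flipping of a recombination array, read by NGS. The value is the raw area under the fraction-flipped curve over 0-4 h after rhamnose induction (AUC4h), with ≥20 reads per time point. It is not background-subtracted; inactive controls average about 0.047.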
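Further: Bxb1 expression induced with 0.2% (w/v) L-rhamnose at OD600 near 0.5, cultures sampled hourly, flipped fraction per protease–substrate barcode pair counted by paired-end Illumina sequencing.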

Row | Variant | area with substrate ENLCFQS | area with substrate ENLDFQS | area with substrate ENLEFQS | area with substrate ENLFFQS | area with substrate ENLIFQS | area with substrate ENLNFQS | area with substrate ENLPFQS | area with substrate ENLSFQS | area with substrate ENLWFQS | area with substrate ENLHFQS
1 | E103P | 0.0717 | 0.0527 | 0.0615 | 0.0963 | 0.0654 | 0.0605 | 0.0236 | 0.09 | 0.0578 | 
2 | E103D | 0.0657 | 0.0598 |  | 0.0796 |  |  | 0.0583 |  |  | 0.0632
3 | V165L | 0.0753 |  |  | 0.101 |  | 0.0662 | 0.0777 | 0.0658 | 0.0472 | 
4 | Y179D | 0.0852 |  |  | 0.0608 |  | 0.083 |  | 0.0729 |  | 
5 | V57Q | 0.0882 | 0.0569 |  | 0.111 |  | 0.068 |  |  |  | 
6 | G138W | 0.0523 | 0.0653 | 0.0517 | 0.0802 |  |  | 0.0564 | 0.0603 |  | 
7 | G138P | 0.0745 |  |  | 0.0603 |  | 0.0697 | 0.0269 | 0.0277 |  | 
8 | G150A | 0.0562 | 0.059 | 0.0643 | 0.0435 |  |  |  |  |  | 
9 | N172M | 0.0706 | 0.0986 |  |  |  | 0.0604 |  | 0.0396 |  | 
10 | T174C | 0.0528 | 0.0495 |  |  | 0.0868 |  | 0.0567 |  |  | 
11 | H76T | 0.0721 | 0.0582 | 0.0612 |  |  | 0.0559 | 0.0382 | 0.0774 |  | 0.0655
12 | T114L | 0.0734 | 0.066 | 0.0679 | 0.0917 |  |  | 0.0671 | 0.077 |  | 0.0923
13 | L191Q | 0.0291 | 0.0584 | 0.0559 | 0.0611 |  | 0.0687 | 0.0628 | 0.0669 |  | 
14 | M88L | 0.0649 | 0.0621 |  | 0.13 |  | 0.0746 | 0.0689 | 0.0669 |  | 0.0851
15 | I139T | 0.0802 | 0.0612 | 0.0396 | 0.136 |  | 0.0674 |  |  |  | 
16 | V229R | 0.0704 |  |  | 0.0919 |  | 0.0607 | 0.0565 | 0.0638 |  | 0.0674
17 | Q59R | 0.0895 | 0.0633 |  | 0.0889 |  | 0.0609 |  | 0.048 | 0.0653 | 0.0709
18 | P222T | 0.0883 |  | 0.0785 | 0.0936 |  |  | 0.0687 | 0.0656 | 0.0569 | 0.0541
19 | G35V | 0.0574 | 0.0399 |  | 0.0484 |  | 0.0662 | 0.0432 |  | 0.0408 | 
20 | Q198P | 0.0576 | 0.0574 |  |  | 0.0698 | 0.0696 |  |  |  | 0.0531
21 | D137A | 0.0695 |  |  |  |  |  |  |  | 0.0882 | 0.0706

Row | Variant | area with substrate ENLCFQS | area with substrate ENLDFQS | area with substrate ENLEFQS | area with substrate ENLFFQS | area with substrate ENLIFQS | area with substrate ENLNFQS | area with substrate ENLPFQS | area with substrate ENLSFQS | area with substrate ENLWFQS | area with substrate ENLHFQS
22 | S182F | 0.0473 | 0.048 | 0.0585 | 0.0582 |  | 0.0431 | 0.0366 | 0.0767 | 0.0757 | 
23 | R50Y | 0.0962 | 0.0432 | 0.0614 | 0.136 |  | 0.0789 | 0.0541 |  |  | 0.0776
24 | P94N | 0.0567 | 0.0665 |  | 0.0943 |  | 0.0539 |  | 0.0537 |  | 0.0709
25 | N116W | 0.0623 | 0.0447 | 0.0538 |  |  | 0.0647 |  | 0.0482 |  | 
26 | F180H | 0.0584 |  |  |  |  | 0.0537 |  | 0.0552 |  | 
27 | C131I | 0.0752 |  | 0.0664 |  | 0.076 |  |  | 0.0457 |  | 
28 | Q227D | 0.062 |  |  | 0.085 | 0.0761 |  | 0.0593 |  |  | 0.0723
29 | K100Q | 0.0638 | 0.0638 |  | 0.0883 |  | 0.0651 | 0.0619 | 0.0632 |  | 
30 | R204D | 0.0629 | 0.056 |  | 0.0702 |  | 0.0576 |  | 0.0589 | 0.0661 | 0.0625
31 | F101S | 0.0404 |  |  |  |  | 0.0465 | 0.0482 | 0.0398 | 0.0447 | 
32 | F117P | 0.0785 | 0.0611 | 0.0675 |  | 0.0733 | 0.0622 | 0.0651 | 0.0551 | 0.0721 | 
33 | K66H | 0.0846 |  | 0.0629 |  | 0.106 | 0.0664 |  | 0.0593 | 0.0747 | 0.0832
34 | N206C | 0.0774 | 0.0745 | 0.0624 | 0.0935 |  | 0.0646 | 0.0564 | 0.0524 |  | 
35 | E223A | 0.041 |  |  | 0.0923 |  |  |  |  |  | 
36 | T119S | 0.0585 | 0.075 | 0.0792 | 0.0616 |  | 0.06 |  | 0.0654 |  | 
37 | H143N | 0.0751 |  | 0.0579 |  |  | 0.0591 | 0.0407 | 0.0827 |  | 
38 | N175S | 0.0691 |  |  | 0.0784 |  | 0.0604 |  |  |  | 
39 | P228S | 0.0821 | 0.0573 | 0.0603 |  |  |  |  | 0.0693 |  | 0.0531
40 | D128T | 0.0795 | 0.0391 |  |  |  |  |  | 0.0672 |  | 0.0783
41 | R106N | 0.0991 |  |  | 0.0968 | 0.0991 | 0.0648 |  | 0.134 |  | 

Same assay, conditions: temperature: 34 °C; time window: 0-4 h after rhamnose induction

Row | Variant | area with substrate ENLKFQS | area with substrate ENLRFQS | area with substrate ENLGFQS | area with substrate ENLLFQS | area with substrate ENLQFQS | area with substrate ENLVFQS | area with substrate ENLMFQS | area with substrate ENLTFQS
42 | E103D | 0.0708 | 0.0698 |  |  |  |  |  | 
43 | V165L | 0.0896 | 0.0633 | 0.0577 |  |  |  |  | 
44 | Y179D | 0.0624 |  | 0.067 | 0.0506 |  |  |  | 
45 | V57Q | 0.0796 |  |  |  |  |  |  | 
46 | G138W | 0.0647 |  |  | 0.0597 |  |  |  | 
47 | G150A | 0.0669 |  |  | 0.0605 |  |  |  | 
48 | T174C | 0.0608 | 0.0774 |  | 0.0855 | 0.0756 |  |  | 
49 | H76T | 0.0602 |  | 0.0553 | 0.0256 | 0.0577 | 0.0673 |  | 
50 | T114L |  | 0.0604 | 0.0798 |  | 0.0777 |  |  | 
51 | L191Q | 0.0569 | 0.0285 |  |  |  |  |  | 
52 | M88L |  | 0.0792 |  |  | 0.0614 | 0.0785 |  | 
53 | I139T | 0.0799 |  | 0.0571 |  |  |  |  | 
54 | V229R | 0.097 |  |  | 0.0716 | 0.0692 |  |  | 
55 | Q59R |  | 0.0777 | 0.0619 |  | 0.0676 |  | 0.0784 | 0.0677
56 | P222T |  | 0.117 |  |  | 0.0666 |  |  | 
57 | G35V | 0.0597 | 0.0443 |  | 0.0429 | 0.0201 |  |  | 
58 | D137A | 0.075 |  | 0.0616 | 0.0809 |  |  |  | 
59 | S182F | 0.076 | 0.0526 |  | 0.0554 | 0.0452 |  |  | 
60 | R50Y | 0.0982 |  |  |  | 0.0652 | 0.101 | 0.0692 | 

Row | Variant | area with substrate ENLKFQS | area with substrate ENLRFQS | area with substrate ENLGFQS | area with substrate ENLLFQS | area with substrate ENLQFQS | area with substrate ENLVFQS | area with substrate ENLMFQS | area with substrate ENLTFQS
61 | P94N |  |  |  |  | 0.0637 |  |  | 
62 | N116W | 0.0742 |  |  | 0.0815 |  | 0.0987 |  | 
63 | F180H | 0.0948 |  |  |  |  | 0.0869 |  | 
64 | C131I |  | 0.0682 |  |  |  |  |  | 
65 | Q227D | 0.0693 | 0.0781 |  | 0.0712 |  | 0.0729 |  | 
66 | K100Q | 0.0787 |  |  | 0.0704 | 0.0631 | 0.0782 |  | 
67 | R204D | 0.0671 |  | 0.0669 | 0.0605 |  |  | 0.0792 | 
68 | F101S | 0.0507 |  |  |  |  |  |  | 
69 | F117P |  | 0.0697 |  | 0.0662 |  | 0.0798 |  | 
70 | K66H | 0.0791 |  |  | 0.0659 |  |  |  | 
71 | N206C | 0.071 | 0.0684 |  |  | 0.0614 |  | 0.0631 | 
72 | E223A |  |  |  |  | 0.0625 |  |  | 
73 | T119S | 0.0669 |  |  |  |  |  | 0.0643 | 
74 | H143N |  |  |  | 0.0276 |  |  |  | 
75 | N175S |  | 0.0752 |  |  |  |  |  | 
76 | P228S | 0.079 | 0.0734 |  |  |  | 0.112 |  | 
77 | D128T | 0.109 |  |  |  |  | 0.122 |  | 
78 | R106N | 0.0764 |  |  |  | 0.0831 |  |  | 
